Measured values reported in the supplement of paper PMC4967469.
Lines with a small IC50 respond at low doses; where the fit passes the top or lowest dose, that dose stands as a limit. For AUC the same curve is integrated over the 256-fold range of doses and scaled to a fraction; values near 1 show little effect. The top dose, if marked as inferred, was calculated from the reported fits.

Key:
Test in all cases: Viability of human cancer cell lines after 72 h of drug (GDSC screen)
PFI-1 = compound: COc1ccccc1S(=O)(=O)Nc1ccc2c(c1)CN(C)C(=O)N2 [PFI-1]; conditions: top dose 10 µM; top dose inferred
Experimental: (§1)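 Human cancer cell lines in 384-well plates, medium with 10% serum, drug for 72 h over a 256-fold dose range (nine 2-fold or five 4-fold steps up to the top dose). Adherent lines were fixed and stained with the nucleic acid dye Syto60, suspension lines read with resazurin; signal relative to control wells, capped at 0 and 100%. One two-parameter sigmoid per drug and line, fitted in a mixed model over all curves with the slope shared within a line.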

NG-25 = compound: CCN1CCN(Cc2ccc(NC(=O)c3ccc(C)c(Oc4ccnc5[nH]ccc45)c3)cc2C(F)(F)F)CC1 [NG-25]; conditions: top dose 10.24 µM; top dose inferred
Experimental: as §1

GSK-1904529A = compound: CCc1cc(Nc2nccc(-c3c(-c4ccc(OC)c(C(=O)Nc5c(F)cccc5F)c4)nc4ccccn34)n2)c(OC)cc1N1CCC(N2CCN(S(C)(=O)=O)CC2)CC1 [GSK-1904529A]; conditions: top dose 1.024 µM; top dose inferred
Experimental: as §1

Tipifarnib = compound: Cn1cncc1[C@@](N)(c1ccc(Cl)cc1)c1ccc2c(c1)c(-c1cccc(Cl)c1)cc(=O)n2C [Tipifarnib]; conditions: top dose 16 µM; top dose inferred
Experimental: as §1

Cell Line: CAL-85-1 (breast, adherent)
- AUC (PFI-1): 0.839
- IC50 (PFI-1): 9.86 µM
- AUC (NG-25): 0.784
- IC50 (NG-25): 5.71 µM
- AUC (GSK-1904529A): 0.966
- IC50 (GSK-1904529A): > 1.02 µM
- AUC (Tipifarnib): 0.525
- IC50 (Tipifarnib): 1.19 µM

Cell Line: CAL-120 (breast, adherent)
- AUC (PFI-1): 0.798
- IC50 (PFI-1): 6.4 µM
- AUC (NG-25): 0.83
- IC50 (NG-25): 9.16 µM
- AUC (GSK-1904529A): 0.967
- IC50 (GSK-1904529A): > 1.02 µM
- AUC (Tipifarnib): 0.758
- IC50 (Tipifarnib): 7.1 µM

Cell Line: CAMA-1 (breast, adherent)
- AUC (PFI-1): 0.896
- IC50 (PFI-1): > 10 µM
- AUC (NG-25): 0.93
- IC50 (NG-25): > 10.2 µM
- AUC (GSK-1904529A): 0.955
- IC50 (GSK-1904529A): > 1.02 µM
- AUC (Tipifarnib): 0.875
- IC50 (Tipifarnib): > 16 µM

Cell Line: CAPAN-1 (pancreas, adherent)
- AUC (PFI-1): 0.943
- IC50 (PFI-1): > 10 µM
- AUC (NG-25): 0.972
- IC50 (NG-25): > 10.2 µM
- AUC (GSK-1904529A): 0.984
- IC50 (GSK-1904529A): > 1.02 µM
- AUC (Tipifarnib): 0.855
- IC50 (Tipifarnib): 15 µM

Cell Line: CCF-STTG1 (glioma, adherent)
- AUC (PFI-1): 0.982
- IC50 (PFI-1): > 10 µM
- AUC (NG-25): 0.851
- IC50 (NG-25): 7.92 µM
- AUC (GSK-1904529A): 0.985
- IC50 (GSK-1904529A): > 1.02 µM
- AUC (Tipifarnib): 0.826
- IC50 (Tipifarnib): 9.75 µM

Cell Line: CCK-81 (large intestine, adherent)
- AUC (PFI-1): 0.986
- IC50 (PFI-1): > 10 µM
- AUC (NG-25): 0.88
- IC50 (NG-25): 9.51 µM
- AUC (GSK-1904529A): 0.979
- IC50 (GSK-1904529A): > 1.02 µM
- AUC (Tipifarnib): 0.833
- IC50 (Tipifarnib): 9.46 µM

Cell Line: CFPAC-1 (pancreas, adherent)
- AUC (PFI-1): 0.902
- IC50 (PFI-1): > 10 µM
- AUC (NG-25): 0.954
- IC50 (NG-25): > 10.2 µM
- AUC (GSK-1904529A): 0.979
- IC50 (GSK-1904529A): > 1.02 µM
- AUC (Tipifarnib): 0.648
- IC50 (Tipifarnib): 2.74 µM

Cell Line: CHL-1 (melanoma, adherent)
- AUC (PFI-1): 0.705
- IC50 (PFI-1): 2.28 µM
- AUC (NG-25): 0.783
- IC50 (NG-25): 4.06 µM
- AUC (GSK-1904529A): 0.969
- IC50 (GSK-1904529A): > 1.02 µM
- AUC (Tipifarnib): 0.471
- IC50 (Tipifarnib): 0.837 µM

Cell Line: CHP-212 (neuroblastoma, adherent)
- AUC (PFI-1): 0.757
- IC50 (PFI-1): 3.2 µM
- AUC (NG-25): 0.973
- IC50 (NG-25): > 10.2 µM
- AUC (GSK-1904529A): 0.878
- IC50 (GSK-1904529A): 0.902 µM
- AUC (Tipifarnib): 0.522
- IC50 (Tipifarnib): 1.14 µM

Cell Line: CHSA0011 (chondrosarcoma, adherent)
- AUC (PFI-1): 0.861
- IC50 (PFI-1): > 10 µM
- AUC (NG-25): 0.907
- IC50 (NG-25): > 10.2 µM
- AUC (GSK-1904529A): 0.98
- IC50 (GSK-1904529A): > 1.02 µM
- AUC (Tipifarnib): 0.98
- IC50 (Tipifarnib): > 16 µM

Cell Line: CHSA0108 (chondrosarcoma, adherent)
- AUC (PFI-1): 0.805
- IC50 (PFI-1): 6.02 µM
- AUC (NG-25): 0.84
- IC50 (NG-25): 8.7 µM
- AUC (GSK-1904529A): 0.97
- IC50 (GSK-1904529A): > 1.02 µM
- AUC (Tipifarnib): 0.849
- IC50 (Tipifarnib): 15.1 µM

Cell Line: CHSA8926 (chondrosarcoma, adherent)
- AUC (PFI-1): 0.907
- IC50 (PFI-1): > 10 µM
- AUC (NG-25): 0.948
- IC50 (NG-25): > 10.2 µM
- AUC (GSK-1904529A): 0.98
- IC50 (GSK-1904529A): > 1.02 µM
- AUC (Tipifarnib): 0.899
- IC50 (Tipifarnib): > 16 µM

Cell Line: COLO-205 (large intestine, suspension)
- AUC (PFI-1): 0.886
- IC50 (PFI-1): > 10 µM
- AUC (NG-25): 0.891
- IC50 (NG-25): > 10.2 µM
- AUC (GSK-1904529A): 0.984
- IC50 (GSK-1904529A): > 1.02 µM
- AUC (Tipifarnib): 0.702
- IC50 (Tipifarnib): 3.67 µM

Cell Line: COLO-678 (large intestine, semi-adherent)
- AUC (PFI-1): 0.933
- IC50 (PFI-1): > 10 µM
- AUC (NG-25): 0.957
- IC50 (NG-25): > 10.2 µM
- AUC (GSK-1904529A): 0.965
- IC50 (GSK-1904529A): > 1.02 µM
- AUC (Tipifarnib): 0.807
- IC50 (Tipifarnib): 11.2 µM

Cell Line: COLO-679 (melanoma, adherent)
- AUC (PFI-1): 0.859
- IC50 (PFI-1): > 10 µM
- AUC (NG-25): 0.984
- IC50 (NG-25): > 10.2 µM
- AUC (GSK-1904529A): 0.968
- IC50 (GSK-1904529A): > 1.02 µM
- AUC (Tipifarnib): 0.491
- IC50 (Tipifarnib): 0.943 µM

Cell Line: COLO-680N (oesophagus, adherent)
- AUC (PFI-1): 0.933
- IC50 (PFI-1): > 10 µM
- AUC (NG-25): 0.986
- IC50 (NG-25): > 10.2 µM
- AUC (GSK-1904529A): 0.98
- IC50 (GSK-1904529A): > 1.02 µM
- AUC (Tipifarnib): 0.603
- IC50 (Tipifarnib): 2.02 µM

Cell Line: COLO-783 (melanoma, adherent)
- AUC (PFI-1): 0.956
- IC50 (PFI-1): > 10 µM
- AUC (NG-25): 0.979
- IC50 (NG-25): > 10.2 µM
- AUC (GSK-1904529A): 0.991
- IC50 (GSK-1904529A): > 1.02 µM
- AUC (Tipifarnib): 0.987
- IC50 (Tipifarnib): > 16 µM

Cell Line: COLO-792 (melanoma, adherent)
- AUC (PFI-1): 0.775
- IC50 (PFI-1): 3.89 µM
- AUC (NG-25): 0.988
- IC50 (NG-25): > 10.2 µM
- AUC (GSK-1904529A): 0.921
- IC50 (GSK-1904529A): > 1.02 µM
- AUC (Tipifarnib): 0.773
- IC50 (Tipifarnib): 6.15 µM

Cell Line: COR-L23 (large cell lung carcinoma, adherent)
- AUC (PFI-1): 0.948
- IC50 (PFI-1): > 10 µM
- AUC (NG-25): 0.889
- IC50 (NG-25): > 10.2 µM
- AUC (GSK-1904529A): 0.985
- IC50 (GSK-1904529A): > 1.02 µM
- AUC (Tipifarnib): 0.795
- IC50 (Tipifarnib): 7.21 µM

Cell Line: COR-L105 (lung adenocarcinoma, adherent)
- AUC (PFI-1): 0.817
- IC50 (PFI-1): 7.24 µM
- AUC (NG-25): 0.746
- IC50 (NG-25): 3.87 µM
- AUC (GSK-1904529A): 0.967
- IC50 (GSK-1904529A): > 1.02 µM
- AUC (Tipifarnib): 0.718
- IC50 (Tipifarnib): 4.82 µM

Cell Line: CP50-MEL-B (melanoma, adherent)
- AUC (PFI-1): 0.856
- IC50 (PFI-1): 7.91 µM
- AUC (NG-25): 0.842
- IC50 (NG-25): 7.1 µM
- AUC (GSK-1904529A): 0.98
- IC50 (GSK-1904529A): > 1.02 µM
- AUC (Tipifarnib): 0.787
- IC50 (Tipifarnib): 6.87 µM

Cell Line: CS1 (bone, adherent)
- AUC (PFI-1): 0.937
- IC50 (PFI-1): > 10 µM
- AUC (NG-25): 0.784
- IC50 (NG-25): 4.89 µM
- AUC (GSK-1904529A): 0.983
- IC50 (GSK-1904529A): > 1.02 µM
- AUC (Tipifarnib): 0.772
- IC50 (Tipifarnib): 6.92 µM

Cell Line: Ca9-22 (head and neck, adherent)
- AUC (PFI-1): 0.736
- IC50 (PFI-1): 2.77 µM
- AUC (NG-25): 0.904
- IC50 (NG-25): > 10.2 µM
- AUC (GSK-1904529A): 0.979
- IC50 (GSK-1904529A): > 1.02 µM
- AUC (Tipifarnib): 0.667
- IC50 (Tipifarnib): 2.8 µM

Cell Line: Ca-Ski (cervix, adherent)
- AUC (PFI-1): 0.733
- IC50 (PFI-1): 3.17 µM
- AUC (NG-25): 0.762
- IC50 (NG-25): 4.08 µM
- AUC (GSK-1904529A): 0.982
- IC50 (GSK-1904529A): > 1.02 µM
- AUC (Tipifarnib): 0.749
- IC50 (Tipifarnib): 5.73 µM
